Assay results reported in the antibiotic and cytotoxicity screens of Wong et al. (2023).
The list shows a part of the results.

Tests used:
HSkMC = human skeletal muscle cells; assay: cytotoxicity call (relative viability < 0.9); conditions: 10 µM
HepG2 = assay: cytotoxicity call (relative viability < 0.9); conditions: 10 µM
S. aureus RN4220 = assay: growth inhibition call (relative growth <= 0.2); conditions: 50 µM

Row | Compound | cytotoxicity call (HSkMC) | cytotoxicity call (HepG2) | growth inhibition call (S. aureus RN4220)
1 | C[C@@H]1CN([C@@H](C)CO)C(=O)Cc2cc(NC(=O)Nc3ccc(F)cc3)ccc2O[C@@H]1CN(C)Cc1ccc(C(=O)Nc2ccccc2N)cc1 | inactive | active | inactive
2 | C[C@@H]1CN([C@@H](C)CO)C(=O)c2cc(NC(=O)Nc3cccc4ccccc34)ccc2O[C@@H]1CN(C)C(=O)NC1CCCCC1 | inactive | inactive | inactive
3 | COc1ccccc1CNC(=O)C[C@@H]1C[C@H]2c3cc(NC(=O)Nc4ccc(C(F)(F)F)cc4)ccc3O[C@H]2[C@@H](CO)O1 | inactive | active | inactive
4 | COc1ccc(S(=O)(=O)N(C)C[C@@H]2Oc3c(NS(=O)(=O)c4ccc(C)cc4)cccc3C(=O)N([C@@H](C)CO)C[C@H]2C)cc1 | inactive | inactive | inactive
5 | COc1ccc(NC(=O)N(C)C[C@H]2OCCCC[C@H](C)Oc3ccc(NC(=O)Nc4ccc(F)cc4)cc3C(=O)N([C@H](C)CO)C[C@@H]2C)cc1 | inactive | inactive | inactive
6 | C[C@H]1CN([C@@H](C)CO)S(=O)(=O)c2ccc(C#Cc3ccccc3F)cc2O[C@H]1CN(C)CC1CC1 | inactive | inactive | inactive
7 | CNC(=O)C[C@H]1CC[C@H]2[C@@H](COC[C@H](O)CN2C(=O)c2ccccn2)O1 | inactive | inactive | inactive
8 | NC(=O)[C@H]1Cc2ccccc2N1 | inactive | inactive | inactive
9 | COCCN1CCC(C(=O)NO)(S(=O)(=O)c2ccc(Oc3ccc(OC(F)(F)F)cc3)cc2)CC1 | inactive | inactive | inactive
10 | Cc1cc(C2CCCCC2)n(O)c(=O)c1.NCCO | inactive | active | active
11 | C[C@H]1COC(=O)[C@@H](Cc2ccc(F)cc2)CCC=CC[C@@H](CC(=O)N[C@H](CO)Cc2ccccc2)C(=O)N1 | inactive | inactive | inactive
12 | CCCC(=O)Nc1ccc2c(c1)C(=O)N(C)C[C@H](OC)[C@@H](C)CN(Cc1ccc(-c3ccccn3)cc1)[C@H](C)CO2 | inactive | inactive | inactive
13 | CO[C@H]1CN(C)C(=O)c2cc(NS(=O)(=O)c3cn(C)cn3)ccc2OC[C@H](C)N(CCC(F)(F)F)C[C@@H]1C | inactive | inactive | inactive
14 | O=C(NCO)c1ccc([N+](=O)[O-])cc1 | inactive | inactive | inactive
15 | CCOC(=O)C1=C(N)C(=O)N(CCCN2CCOCC2)C1 | inactive | inactive | inactive
16 | CN(C)CC(=O)N[C@@H]1CC[C@@H](CCNC(=O)C2CCC2)O[C@H]1CO | inactive | inactive | inactive
17 | C[C@@H]1CCCCO[C@@H](CN(C)C(=O)Nc2ccc(C(F)(F)F)cc2)[C@H](C)CN([C@@H](C)CO)C(=O)c2cc(NC(=O)Nc3ccc(F)cc3)ccc2O1 | inactive | inactive | inactive

Row | Compound | cytotoxicity call (HSkMC) | cytotoxicity call (HepG2) | growth inhibition call (S. aureus RN4220)
18 | COc1ccc([Si](C)(C)[C@H]2[C@H](CCn3cc([C@H](O)c4ccccc4)nn3)O[C@@]3(C(=O)N(Cc4cccc(N5CCOC5=O)c4)c4ccccc43)[C@@H]2C)cc1 | inactive | inactive | inactive
19 | C[C@H]1CN([C@@H](C)CO)C(=O)Cc2cc(NC(=O)Cn3cnnn3)ccc2O[C@H]1CN(C)C(=O)Nc1cccc2ccccc12 | inactive | inactive | inactive
20 | CCCC(=O)O | inactive | inactive | inactive
21 | CC(C)NC(=O)N(C)C[C@H]1OCCCC[C@@H](C)Oc2ccc(NC(=O)C3CCCCC3)cc2C(=O)N([C@@H](C)CO)C[C@H]1C | inactive | inactive | inactive
22 | C[C@H](CO)N1C[C@H](C)[C@H](CN(C)C(=O)Cc2ccccc2)Oc2ncc(C#CC3(O)CCCC3)cc2C1=O | active | inactive | inactive
23 | C[C@@H]1CN([C@H](C)CO)C(=O)c2cc(NC(=O)Nc3ccc(C(F)(F)F)cc3)ccc2O[C@H]1CN(C)C(=O)Nc1ccc(C(F)(F)F)cc1 | inactive | inactive | inactive
24 | Cn1cnc(S(=O)(=O)N[C@@H]2CC[C@H](CC(=O)Nc3ccccc3)O[C@@H]2CO)c1 | inactive | inactive | inactive
25 | COc1ccc(S(=O)(=O)Nc2ccc3c(c2)C(=O)N([C@@H](C)CO)C[C@H](C)[C@H](CN(C)S(=O)(=O)c2ccc(Cl)cc2)OCCCC[C@@H](C)O3)cc1 | inactive | active | inactive
26 | C[C@@H]1CN([C@@H](C)CO)C(=O)c2cccc(NC(=O)C3CC3)c2O[C@H]1CN(C)S(=O)(=O)c1cn(C)cn1 | inactive | inactive | inactive
27 | O=C(C[C@H]1CC[C@H](NC(=O)Cc2ccccn2)[C@H](CO)O1)NCCc1ccncc1 | inactive | inactive | inactive
28 | C[C@H](CO)N1C[C@H](C)[C@H](CN(C)S(=O)(=O)c2cccc(F)c2)Oc2ncc(C#CC3CC3)cc2C1=O | inactive | inactive | inactive
29 | CC(C)[C@@H](CC[C@@H](C)[C@H]1CC[C@H]2[C@@H]3[C@H](O)C[C@H]4C[C@@H](NCCCNCCCCN)CC[C@]4(C)[C@H]3CC[C@]12C)OS(=O)(=O)O | active | active | inactive
30 | C[C@H]1CN([C@@H](C)CO)C(=O)Cc2cc(NC(=O)Cn3cnnn3)ccc2O[C@@H]1CN(C)C(=O)Nc1ccc(F)cc1 | inactive | inactive | inactive
31 | C[C@H]1CN([C@@H](C)CO)C(=O)Cc2cc(NS(=O)(=O)c3ccc(Cl)cc3)ccc2O[C@@H]1CN(C)Cc1ccc(Oc2ccccc2)cc1 | active | active | inactive
32 | C[C@H]1CN([C@@H](C)CO)C(=O)c2cc(NS(=O)(=O)c3cn(C)cn3)ccc2O[C@H]1CN(C)Cc1ccc2c(c1)OCO2 | inactive | inactive | inactive
33 | COc1ccccc1C#Cc1cnc2c(c1)C(=O)N([C@@H](C)CO)C[C@@H](C)[C@H](CN(C)S(=O)(=O)c1cn(C)cn1)O2 | inactive | active | inactive
